# Variants at the floor of the assay are shown more often than the library holds them.
# B1: TPR 5TU (parent)
# chain: GGAUCUUCUCGAUCUAACAAAAAAGACAAAUCUGCCACAAAGCUUGAGAGCAUCUUCGGAUGCAGAGGCGGCAGCCUUCGGUGGCGCGAUAGCGCCAACGUUCUCAACUAUGACACGCAAAACGCGUGCUCCGUUGAAUGGAGUUUAUCAUG
# Variants of: B1
# Assay: polymerase ribozyme fitness, log enrichment relative to wild type (log ratio); higher = more active; in vitro selection for triplet polymerase activity
# Outline: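 Mutant libraries were PCR-built and transcribed for each subunit of a heterodimeric triplet polymerase ribozyme and selected for one round in triplicate at −7 °C, frozen, before gel excision of extended constructs and streptavidin-bead capture. Input and output libraries were Illumina-sequenced, keeping genotypes with ≥10 input reads and ≥1 read per output. Fitness is a logarithmic ratio of genotype to wild-type enrichment, in base 2, using inverse-variance-weighted replicate averages.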
row,Variant,polymerase ribozyme fitness (log ratio)
1,GGAUCUUCUCGAUCUAACAAAAAAGACAAAUCUGCCACAAAGCUUGAGAGCAUCUUCGGAUGCAGAGACGGCAGCCUUCGGUGGGGCGAUAGCGCCAACGUUCUCAACUAUGACACGCACAACGCGUGCUCCGUUGAAUGGAGUUUAGCAUG [G68A C85G A120C U148G],≤ -4.2
2,GGAUCUUCUCGAUCUAACAAAAAAGACAAAUCUGCCACAAAGCUUGAGAGCAUCUUCGGAUGCAGAUGCGGCAGCCUUGGGUGGCGCGAUAGCGCCAACGUUCUCAACUAUGACACGCAAAACGCGUGCUCCGUUGAAUGGAGUUUAUCAUG [G67U C79G],≤ -4.2
3,GGAUCUUCUCGAUCUAACAAAAAAGACAAAUCUGCCACAAAGCUUGAGAGCAUCUUCGGAUGCAGAGACGGCAGCCUUCGGUGGCGAAAUAGCGCCAACGUUCUCAACUAUGACACGCAAAACGCGUGCUCCGUUGAAUGGGGUAUAUCAUG [G68A C87A G88A A142G U145A],≤ -4.2
4,GGAUCUUCUCGAUCUAACAAAAAAGACAAAUCUGCCACAAAGCUUGAGAGCAUCUUCGGAUGCAGAGACGCCAGCCUUCGGUGGCGCGAUAGCGACAACGUUCUCAACUAUGACAUGCAAAACGCGUGCUCCGUUGAAUGGAGUUUAUCAUG [G68A G71C C95A C116U],≤ -4.2
5,GGAUCUUCUCGAUCUAACAAAAAAGACAAAUCUGCCACAAAGCUUGAGAGCAUCUUCGGAUGCAGAGACGUCAGCCUUCGCUGGCGCGAUAGCGCCAACGUUCUAAACUAUGACACGGAAAACGCGUGCUCCGUUGAAUGGAGUUUAUCAUG [G68A G71U G81C C105A C118G],≤ -4.2
6,GGAUCUUCUCGAUCUAACAAAAAAGACAAAUCUGCCACAAAGCUUGAGAGCAUCUUCGGAUGCAGAGACGGCAGACAUCGGUGGCGCGAUAGCGACGACGUUCUCAACUAUGACACGCAAAACGCGUGCUCCGUUGAAUGGAGUUUAUCAUG [G68A C75A U77A C95A A97G],≤ -4.2
7,GGAUCUUCUCGAUCUAACAAAAAAGACAAAUCUGCCACAAAGCUUGAGAGCAUCUUCGGAUGCAGAGACGGCAGCCUUCGGUGGCGGGAUAGCGCCAACGUUCUCAACUAUGACACGCAAAACGCGUGCUCCGUUGAAUGGAGUUUAUCAUG [G68A C87G],≤ -4.2
8,GGAUCUUCUCGAUCUAACAAAAAAGACAAAUCUGCCACAAAGCUUGAGAGCAUCUUCGGAUGCAGAGACGGCAGCCUUCGGUGGCGCGAUAGCGCCAACGUUCUCAAGUAUGACACGCAAAACGCGUGCUCCGUUGAAUGAAGUUUAUCAUG [G68A C108G G141A],≤ -4.2
9,GGAUCUUCUCGAUCUAACAAAAAAGACAAAUCUGCCACAAAGCUUGAGAGCAUCUUCGGAUGCAGAGACGGCAGCCUUCGGUGGCGCGAUAGCGCAAACGUUCUCAACUAUGACACGCAAAACGCGUGCUCCGUUGAAUGGAUUUUAUCAGG [G68A C96A G143U U151G],≤ -4.2
10,GGAUCUUCUCGAUCUAACAAAAAAGACAAAUCUGCCACAAAGCUUGAGAGCAUCUUCGGAUGCAGAGACGGCAGGCUUCGGUGGCGCGAUAGCGCUAACGUUCUGAACAAUGACACGCAAAACGCGUGCUCCGUUGAAUGGAGUUUAUCAUG [G68A C75G C96U C105G U109A],≤ -4.2
11,GGAUCUUCUCGAUCUAACAAAAAAGACAAAUCUGCCACAAAGCUUGAGAGCAUCUUCGGAUGCAGAGACGGCAGCCUUCGGUGGCGCGAUAGCGCCAACGUUCUCAACUAUGCCACGCAAAACGCGUGCUCCGUUGAAUGGAGUUUAUCAUG [G68A A113C],≤ -4.2
12,GGAUCUUCUCGAUCUAACAAAAAAGACAAAUCUGCCACAAAGCUUGAGAGCAUCUUCGGAUGCAGAUGAGGCAGCCUUCGGUAGCGCGAUAACGCCAACGUUCUCAACUAUGACACGCAAAACGCGUGCUCCGUUGAAUGGAGUUUAUCAUG [G67U C69A G83A G92A],≤ -4.2
13,GGAUCUUCUCGAUCUAACAAAAAAGACAAAUCUGCCACAAAGCUUGAGAGCAUCUUCGGAUGCAGAUGCGGCAGCCUUUGGUUGCGCCAUAGCGCCAACGUUCUCAACUAUGACACGCAAAACGCGUGCUCCGUUGAAUGGAGUUUAUCAUG [G67U C79U G83U G88C],≤ -4.2
14,GGAUCUUCUCGAUCUAACAAAAAAGACAAAUCUGCCACAAAGCUUGAGAGCAUCUUCGGAUGCAGAGACGGCACCCUUCGGUGGCGCGAUAGCGCCAGUAUUAUCAACUAUGACACGCAAAACGCGUGCUCCGUUGAAUGGAGUUUAUCAUG [G68A G74C A98G C99U G100A C103A],≤ -4.2
15,GGAUCUUCUCGAUCUAACAAAAAAGACAAAUCUGCCACAAAGCUUGAGAGCAUCUUCGGAUGCAGAUGCGGCAGACUUCGGUGGCGCGAUAACGCCAACGUUCUCAACUAUGACACGCAAAACUCGUGCUCCGUUGAAUGGAGUUUAUCAUG [G67U C75A G92A G124U],≤ -4.2
16,GGAUCUUCUCGAUCUAACAAAAAAGACAAAUCUGCCACAAAGCUUGAGAGCAUCUUCGGAUGCAGAUGCGGCAGCCUUCGGUGGCGCGAUAGCGCCAACGUUCUCAACUAUGACACGUAAAACGCGUGCUCCGUUGAAUGGAGUUUAUCAUG [G67U C118U],-2.87
17,GGAUCUUCUCGAUCUAACAAAAAAGACAAAUCUGCCACAAAGCUUGAGAGCAUCUUCGGAUGCAGAGACGGCAGCCUUCGGUGGCGGGAUAGCGCCAACGUUCGCAACUAUGACACGCAAAACGCGUGCUCCGUUGAAUGGAGUUUAUCAUG [G68A C87G U104G],≤ -4.2
18,GGAUCUUCUCGAUCUAACAAAAAAGACAAAUCUGCCACAAAGCUUGAGAGCAUCUUCGGAUGCAGAGACGGCAGCCUUCGGUGGCGCGAUUGCGCCAACGUUCUCAACUAUGACACGCAAAACGCGUGCUCCGUUGAAUGGAGUUUAUCAUG [G68A A91U],≤ -4.2
19,GGAUCUUCUCGAUCUAACAAAAAAGACAAAUCUGCCACAAAGCUUGAGAGCAUCUUCGGAUGCAGAGACGGCAGACUUCGGUGGCGCGAUAGCGCCAACGUUCUCAACUAUGACACGCAAAACGCGUACUCCGUUGAAUGGAGUUUAUCCUG [G68A C75A G128A A150C],≤ -4.2
